Assay results taken from the supplement of paper PMC12015411.

Tested on: Escherichia coli BW25113
Assay: growth relative to no-drug wells (fraction of no-drug control); higher = more growth, less inhibition
Protocol: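 8 x 8 checkerboard in cation-adjusted Mueller-Hinton broth at 37 °C; OD600 at the end of exponential growth as a fraction of no-drug wells, two biological replicates.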

Oc1cccc2cccnc12 [8-Hydroxyquinoline]
nitroxoline concentration 0 µg/ml
Settings | growth
0.125 µg/ml | 0.93714
0.215 µg/ml | 0.993
0.25 µg/ml | 0.973
0.43 µg/ml | 0.92
0.5 µg/ml | 0.9318
0.86 µg/ml | 0.896
1 µg/ml | 0.859

Oc1cccc2cccnc12 [8-Hydroxyquinoline] + Oc1ccc([N+](=O)[O-])c2cccnc12 [nitroxoline]
growth
Settings | nitroxoline concentration 0.136 µg/ml | nitroxoline concentration 0.255 µg/ml | nitroxoline concentration 0.374 µg/ml | nitroxoline concentration 0.493 µg/ml | nitroxoline concentration 0.612 µg/ml | nitroxoline concentration 0.731 µg/ml | nitroxoline concentration 0.85 µg/ml
0.125 µg/ml | 1 | 1 | 0.919 | 0.624 | 0.556 | 0.372 | 0.295
0.215 µg/ml | 1 | 0.987 | 0.687 | 0.514 | 0.438 | 0.351 | 0.211
0.25 µg/ml | 1 | 0.968 | 0.639 | 0.529 | 0.379 | 0.248 | 0.203
0.43 µg/ml | 1 | 0.854 | 0.668 | 0.535 | 0.337 | 0.208 | 0.176
0.5 µg/ml | 1 | 0.905 | 0.684 | 0.461 | 0.42 | 0.215 | 0.175
0.86 µg/ml | 0.9962 | 0.72 | 0.518 | 0.362 | 0.279 | 0.224 | 0.13
1 µg/ml | 0.96 | 0.69 | 0.483 | 0.252 | 0.259 | 0.161 | 0.114

NCC[C@H](O)C(=O)N[C@@H]1C[C@H](N)[C@@H](O[C@H]2O[C@H](CN)[C@@H](O)[C@H](O)[C@H]2O)[C@H](O)[C@H]1O[C@H]1O[C@H](CO)[C@@H](O)[C@H](N)[C@H]1O [Amikacin]
nitroxoline concentration 0 µg/ml
Settings | growth
0.025 µg/ml | 0.934
0.043 µg/ml | 0.975
0.05 µg/ml | 0.9609
0.086 µg/ml | 0.9419
0.1 µg/ml | 0.846
0.172 µg/ml | 0.775
0.2 µg/ml | 0.82

NCC[C@H](O)C(=O)N[C@@H]1C[C@H](N)[C@@H](O[C@H]2O[C@H](CN)[C@@H](O)[C@H](O)[C@H]2O)[C@H](O)[C@H]1O[C@H]1O[C@H](CO)[C@@H](O)[C@H](N)[C@H]1O [Amikacin] + Oc1ccc([N+](=O)[O-])c2cccnc12 [nitroxoline]
growth
Settings | nitroxoline concentration 0.136 µg/ml | nitroxoline concentration 0.255 µg/ml | nitroxoline concentration 0.374 µg/ml | nitroxoline concentration 0.493 µg/ml | nitroxoline concentration 0.612 µg/ml | nitroxoline concentration 0.731 µg/ml | nitroxoline concentration 0.85 µg/ml
0.025 µg/ml | 1 | 1 | 0.872 | 0.723 | 0.641 | 0.528 | 0.476
0.043 µg/ml | 1 | 1 | 0.946 | 0.724 | 0.609 | 0.517 | 0.472
0.05 µg/ml | 1 | 0.986 | 1 | 0.7729 | 0.623 | 0.531 | 0.508
0.086 µg/ml | 1 | 0.9955 | 0.955 | 0.758 | 0.681 | 0.531 | 0.473
0.1 µg/ml | 0.9805 | 1 | 0.947 | 0.827 | 0.672 | 0.554 | 0.5249
0.172 µg/ml | 0.7878 | 0.796 | 0.763 | 0.732 | 0.584 | 0.496 | 0.434
0.2 µg/ml | 0.759 | 0.76 | 0.686 | 0.504 | 0.519 | 0.427 | 0.439

CC[C@H]1OC(=O)[C@H](C)[C@@H](O[C@H]2C[C@@](C)(OC)[C@@H](O)[C@H](C)O2)[C@H](C)[C@@H](O[C@@H]2O[C@H](C)C[C@H](N(C)C)[C@H]2O)[C@](C)(O)C[C@@H](C)CN(C)[C@H](C)[C@@H](O)[C@]1(C)O [Azithromycin]
nitroxoline concentration 0 µg/ml
Settings | growth
0.0718 µg/ml | 1
0.1349 µg/ml | 1
0.1979 µg/ml | 0.913
0.2609 µg/ml | 0.901
0.3239 µg/ml | 0.819
0.387 µg/ml | 0.718
0.45 µg/ml | 0.719

CC[C@H]1OC(=O)[C@H](C)[C@@H](O[C@H]2C[C@@](C)(OC)[C@@H](O)[C@H](C)O2)[C@H](C)[C@@H](O[C@@H]2O[C@H](C)C[C@H](N(C)C)[C@H]2O)[C@](C)(O)C[C@@H](C)CN(C)[C@H](C)[C@@H](O)[C@]1(C)O [Azithromycin] + Oc1ccc([N+](=O)[O-])c2cccnc12 [nitroxoline]
growth
Settings | nitroxoline concentration 0.12 µg/ml | nitroxoline concentration 0.225 µg/ml | nitroxoline concentration 0.33 µg/ml | nitroxoline concentration 0.435 µg/ml | nitroxoline concentration 0.54 µg/ml | nitroxoline concentration 0.645 µg/ml | nitroxoline concentration 0.75 µg/ml
0.0718 µg/ml | 1 | 0.949 | 0.972 | 1 | 0.986 | 0.815 | 0.556
0.1349 µg/ml | 0.982 | 0.848 | 0.9136 | 0.963 | 0.936 | 0.676 | 0.563
0.1979 µg/ml | 0.883 | 0.875 | 0.877 | 0.767 | 0.798 | 0.534 | 0.461
0.2609 µg/ml | 0.839 | 0.759 | 0.773 | 0.883 | 0.685 | 0.453 | 0.335
0.3239 µg/ml | 0.802 | 0.791 | 0.67 | 0.742 | 0.643 | 0.312 | 0.233
0.387 µg/ml | 0.731 | 0.64 | 0.694 | 0.619 | 0.63 | 0.216 | 0.129
0.45 µg/ml | 0.6802 | 0.616 | 0.585 | 0.605 | 0.637 | 0.166 | 0.0931

C[C@H]1[C@H](NC(=O)/C(=N\OC(C)(C)C(=O)O)c2csc(N)n2)C(=O)N1S(=O)(=O)O [Aztreonam]
nitroxoline concentration 0 µg/ml
Settings | growth
0.008 µg/ml | 0.957
0.015 µg/ml | 0.93
0.022 µg/ml | 0.904
0.029 µg/ml | 0.113
0.036 µg/ml | 0.0147
0.043 µg/ml | 0.0178
0.05 µg/ml | 0.00857

C[C@H]1[C@H](NC(=O)/C(=N\OC(C)(C)C(=O)O)c2csc(N)n2)C(=O)N1S(=O)(=O)O [Aztreonam] + Oc1ccc([N+](=O)[O-])c2cccnc12 [nitroxoline]
growth
Settings | nitroxoline concentration 0.072 µg/ml | nitroxoline concentration 0.135 µg/ml | nitroxoline concentration 0.198 µg/ml | nitroxoline concentration 0.261 µg/ml | nitroxoline concentration 0.324 µg/ml | nitroxoline concentration 0.387 µg/ml | nitroxoline concentration 0.45 µg/ml
0.008 µg/ml | 0.982 | 0.974 | 0.936 | 0.877 | 0.87 | 0.796 | 0.638
0.015 µg/ml | 0.958 | 0.93 | 0.941 | 0.892 | 0.869 | 0.784 | 0.651
0.022 µg/ml | 0.88 | 0.887 | 0.884 | 0.87 | 0.821 | 0.836 | 0.604
0.029 µg/ml | 0.746 | 0.634 | 0.85 | 0.926 | 0.86 | 0.807 | 0.639
0.036 µg/ml | 0.287 | 0.465 | 0.657 | 0.762 | 0.769 | 0.727 | 0.562
0.043 µg/ml | 0.0476 | 0.0868 | 0.193 | 0.492 | 0.529 | 0.498 | 0.44
0.05 µg/ml | 0.0152 | 0.0431 | 0.0544 | 0.0682 | 0.127 | 0.212 | 0.19

CO/N=C(\C(=O)N[C@@H]1C(=O)N2C(C(=O)[O-])=C(C[N+]3(C)CCCC3)CS[C@H]12)c1csc(N)n1 [Cefepime]
nitroxoline concentration 0 µg/ml
Settings | growth
0.004 µg/ml | 0.984
0.0075 µg/ml | 0.96
0.011 µg/ml | 0.969
0.0145 µg/ml | 0.888
0.018 µg/ml | 0.589
0.0215 µg/ml | 0.484
0.025 µg/ml | 0.135

CO/N=C(\C(=O)N[C@@H]1C(=O)N2C(C(=O)[O-])=C(C[N+]3(C)CCCC3)CS[C@H]12)c1csc(N)n1 [Cefepime] + Oc1ccc([N+](=O)[O-])c2cccnc12 [nitroxoline]
growth
Settings | nitroxoline concentration 0.12 µg/ml | nitroxoline concentration 0.225 µg/ml | nitroxoline concentration 0.33 µg/ml | nitroxoline concentration 0.435 µg/ml | nitroxoline concentration 0.54 µg/ml | nitroxoline concentration 0.645 µg/ml | nitroxoline concentration 0.75 µg/ml
0.004 µg/ml | 0.887 | 0.774 | 0.776 | 0.596 | 0.628 | 0.617 | 0.565
0.0075 µg/ml | 0.854 | 0.757 | 0.73 | 0.618 | 0.667 | 0.605 | 0.565
0.011 µg/ml | 0.912 | 0.843 | 0.781 | 0.716 | 0.66 | 0.626 | 0.558
0.0145 µg/ml | 0.841 | 0.787 | 0.707 | 0.74965 | 0.627 | 0.589 | 0.573
0.018 µg/ml | 0.73 | 0.726 | 0.717 | 0.706 | 0.673 | 0.613 | 0.521
0.0215 µg/ml | 0.492 | 0.57 | 0.663 | 0.651 | 0.629 | 0.587 | 0.557
0.025 µg/ml | 0.22 | 0.4275 | 0.436 | 0.606 | 0.628 | 0.608 | 0.569

CC(C)(O/N=C(\C(=O)N[C@@H]1C(=O)N2C(C(=O)[O-])=C(C[n+]3ccccc3)CS[C@H]12)c1csc(N)n1)C(=O)O [Ceftazidime]
nitroxoline concentration 0 µg/ml
Settings | growth
0.0094 µg/ml | 0.983
0.016 µg/ml | 0.985
0.0187 µg/ml | 0.9932
0.032 µg/ml | 1
0.0375 µg/ml | 0.9988
0.064 µg/ml | 0.943
0.075 µg/ml | 0.939

CC(C)(O/N=C(\C(=O)N[C@@H]1C(=O)N2C(C(=O)[O-])=C(C[n+]3ccccc3)CS[C@H]12)c1csc(N)n1)C(=O)O [Ceftazidime] + Oc1ccc([N+](=O)[O-])c2cccnc12 [nitroxoline]
growth
Settings | nitroxoline concentration 0.136 µg/ml | nitroxoline concentration 0.255 µg/ml | nitroxoline concentration 0.374 µg/ml | nitroxoline concentration 0.493 µg/ml | nitroxoline concentration 0.612 µg/ml | nitroxoline concentration 0.731 µg/ml | nitroxoline concentration 0.85 µg/ml
0.0094 µg/ml | 1 | 1 | 0.88 | 0.709 | 0.61 | 0.514 | 0.498
0.016 µg/ml | 1 | 1 | 0.929 | 0.734 | 0.5961 | 0.514 | 0.456
0.0187 µg/ml | 1 | 1 | 0.909 | 0.719 | 0.615 | 0.539 | 0.509
0.032 µg/ml | 1 | 1 | 0.987 | 0.7818 | 0.635 | 0.518 | 0.488
0.0375 µg/ml | 1 | 1 | 0.961 | 0.798 | 0.673 | 0.576 | 0.531
0.064 µg/ml | 1 | 1 | 0.955 | 0.751 | 0.614 | 0.505 | 0.51
0.075 µg/ml | 1 | 0.983 | 0.901 | 0.75 | 0.593 | 0.508 | 0.461

Bacterial growth in Mueller-Hinton broth at 37 °C with the drug at the dose given, alone or with nitroxoline. Checkerboards on E. coli BW25113: OD600 at the end of exponential growth as a fraction of no-drug wells. Colistin series: OD595 at 10.75 h as a fraction of the colistin-free well. 1 = full growth, lower = more inhibition. No active / inactive call per well. Checkerboard doses stop near each drug's IC75, and their values pile up at 1, as if capped there. Colistin and gentamicin are mixtures; one drawing stands for each.
